Here are results for 58 compounds from PubChem BioAssay AID463173 (ICCB-Longwood Screening Facility, Harvard Medical School, 2010).

The campaign covered roughly 52,000 compounds. About 4,300 (8.3%) were called active. Rule as the data show it: active = survival mostly below about 52% (no sharp cut-off); inactive = mostly above about 56%. The list shows a part of the results.

For the assay, the system named is DeltatarO mutant. Briefly: S. aureus survival, RN4220 and DeltatarO strains – OD600, teichoic acid synthesis inhibitors, primary screen (AID 463173). The following applies: S. aureus RN4220 wild type/DeltatarO growth, OD600, 18 h, hits give low values, screened at 18.75 µg/mL (by protocol).
With `O=C(Nc1ccccn1)C1(c2ccccc2)CCCC1`, the survival was inactive: 93%. The figure for `Cc1ccccc1CCNC(=O)c1cc2ccccn2n1` is inactive: 82%; for `CCOCCn1ccc2c(OCC(=O)Nc3cc(C(F)(F)F)ccc3Cl)cccc2c1=O` it is inactive: 102%; for `COc1ccccc1Cn1c(CNS(=O)(=O)c2c(C)cc(C)cc2C)nc2cccnc21` it is inactive: 126%. The figure for `COc1ccccc1C/C(N)=N/OC(=O)c1ccccc1` is inactive: 71%; for `CCOC(=O)c1cccc(NC(=O)CCc2c(C)nc3c4cccnc4nn3c2C)c1` it is inactive: 100%; for `CCOC(=O)Cn1nc(N2CCN(c3ccc(F)cc3)CC2)ccc1=O` it is inactive: 78%. On to `COC(=O)C1=C(c2ccccc2)c2ccccc2S(=O)(=O)N1CC(=O)Nc1cc(C)ccc1C`, for which the survival is inactive: 58%. Under `Cc1ccc(CN2C(=O)C3(SCC(=O)N3c3ccc(C)c(C)c3)c3ccccc32)cc1` (stereo not drawn) stands inactive: 99%; under `Cc1cccc(N2CCN(c3c(CN4CCCC4)c(=O)oc4ccccc34)CC2)c1C`, inactive: 87%. In the case of `CSc1ccc(Nc2nn(-c3ccc(OC(F)(F)F)cc3)nc2C(C)=O)cc1`, the survival is inactive: 86%. As to `Cc1c(C(=O)N2CCOCC2)oc2c1-c1nn(CC(=O)NCc3ccccc3)cc1CC2`, the survival is inactive: 79%.

In the case of `C=CCNC(=O)Nc1ccc2oc(C)nc2c1`, the survival was inactive: 103%. The figure for `Nc1c2c(nc3c1CCC3)CCCC2` is inactive: 87%. The figure for `COCCNC(=O)C(=O)Nc1ccc2nc3n(c(=O)c2c1)CCCCC3` is inactive: 97%; for `C=Cc1ccc(Cn2c(C(=O)O)c(CNCc3cc(OC)ccc3OC)c3ccc(C)cc32)cc1` it is inactive: 88%; for `COc1ccc(-c2nc(C)c(CCNC(=O)c3cccc(C)c3)s2)cc1OC` it is inactive: 86%. Under `COc1ccc(CCNC(=O)C(C)n2nc(C)c3sc4ccccc4c3c2=O)cc1OC` (stereo not drawn) stands inactive: 110%; under `CCOc1ccc(C2C(C(=O)Nc3ccc(C)cc3C)=C(C)Nc3c(C(=O)Nc4ccc(C)cc4)cnn32)cc1OC` (stereo not drawn), inactive: 94%; under `CCC12CN3CC(C)(CN(C1)C3c1c(C)[nH]c3ccccc13)C2=O` (stereo not drawn), inactive: 83%.

As for `COc1ccc(-c2nc3c(C#N)c[nH]n3c2NC2CCCCC2)cc1`, the survival is inactive: 49%. Consider `COc1ccc(C2NC(=O)N(C)C3=C2C(=O)N(c2ccccc2)C3)cc1` (stereo not drawn), for which the survival is inactive: 78%. Turning to `O=C(O)CCn1c(=S)n(CCC(=O)O)c2ccccc21`, the survival was inactive: 107%. Under `Cc1ccc(-n2nc(C)c3c(C)c(CCC(=O)NCc4cccc(Cl)c4)c(C)nc32)cc1C` stands inactive: 98%; under `CC(=O)c1cccc(NC(=O)c2ccc3c(c2)CCN3S(=O)(=O)c2ccccc2)c1`, active: 44%. The figure for `CCn1cc(S(=O)(=O)c2ccccc2)c(=O)c2cc(F)c(N3CCCCCC3)cc21` is inactive: 80%; for `Cc1cccc(C(=O)Nc2cc3c(cc2N2CCCCC2)n(C)c(=O)n3C)c1` it is inactive: 71%; for `CCOc1ccc(CCNC(=O)c2cc3cc4ccc(OC)cc4nc3s2)cc1OCC` it is inactive: 83%. For `O=C(CSc1c2c(nc3ccc(Cl)cc13)CCCC2)N1CCCCC1`, the survival is active: 22%. Under `Cc1ccccc1OCC(=O)Nc1ccc(S(=O)(=O)Nc2ncccn2)cc1` stands inactive: 133%. Take `Cc1ccc(NC(=O)n2ncc3c(C)cccc32)c(C)c1`: the survival was inactive: 85%. The figure for `CCc1nn(CC(=O)N2CCN(c3cccc(C)c3)C(C)C2)c(=O)c2cc3sccc3n12` (stereo not drawn) is inactive: 135%; for `CCN1CCN(C(=S)Nc2ccccc2)CC1` it is inactive: 72%; for `CCOCCCNC(=O)C(c1ccc(C)cc1)N(Cc1ccc2c(c1)OCO2)C(=O)c1ccccc1O` (stereo not drawn) it is inactive: 55%. With `Cc1cc(C)c(NC(=O)CSc2nc(=O)n(Cc3ccncc3)c3c2CCC3)c(C)c1`, the survival was inactive: 78%. `COc1cccc(C2=CC(c3ccccc3F)n3ncc(C(=O)Nc4ccc(F)cc4)c3N2)c1` (stereo not drawn): the survival is inactive: 72%. Under `Cc1ccc(Nc2c(-c3cccnc3)nc3ccc(C)cn23)cc1` stands inactive: 95%.

For the compound `Cc1nn(C2CC(=O)N(c3ccc(Cl)cc3)C2=O)c(C)c1C` (stereo not drawn), the survival is inactive: 89%. Regarding `CCOCCCNC(=O)C1CCN(c2nc3ccc(C)cc3[nH]2)CC1`, the survival was inactive: 101%. With `COC(=O)c1cc(-c2ccc(Cl)cc2)c2c(=O)[nH]c(=O)n(C)c2n1`, the survival is inactive: 92%. For the compound `COc1ccc(NC(=O)CCc2c(C)nn(-c3ccc(N4CCCC4)nn3)c2C)cc1Cl`, the survival is inactive: 101%. For the compound `Cc1ccc(Cn2c(=O)n(CCc3ccccc3)c(=O)c3sc4ccccc4c32)cc1`, the survival was inactive: 74%.

As for `COc1ccc(N2CCN(C(=O)Cn3cnc4sc(C)c(S(=O)(=O)N5CCCCC5)c4c3=O)CC2)cc1`, the survival was inactive: 73%.

On to `Cc1ccc(NC(=O)CCn2cccn2)c(C)c1`, for which the survival was inactive: 79%. For `O=C(CSc1nc2c([nH]c3ccccc32)c(=O)n1-c1ccccc1)Nc1cccc(C(F)(F)F)c1`, the survival is active: -4%. As for `CCc1ccc(CNC(=O)c2ccc3c(c2)c(C)c(C)n3Cc2ccccc2)cc1`, the survival is inactive: 83%.

For the compound `O=C(NC1CCCCC1)c1ccc(CSc2nc3ccncc3n2Cc2cccc(F)c2)cc1`, the survival was inactive: 95%. For `Cc1ccc(N(C)C(=O)Cn2ncc3c([nH]c4ccccc43)c2=O)cc1C`, the survival was active: 37%. The figure for `O=C(/C=C/c1ccco1)Nc1ccc(-c2nc3ccccc3[nH]2)cc1` is inactive: 74%. As for `COc1ccc(CNCC#N)cc1OC`, the survival was inactive: 77%. On to `CS(=O)(=O)N1CCN(C(=O)c2ccccc2)CC1`, for which the survival is inactive: 76%. `CCOC(=O)N1CCc2c(sc(NCc3cc(OC)ccc3OC)c2C(=O)Nc2cc(OC)ccc2OC)C1`: the survival was inactive: 90%. For `O=C(CC1SCC(C(=O)O)NC1=O)NCc1ccccc1` (stereo not drawn), the survival was inactive: 66%. The figure for `O=C(c1ccccc1)N1CCC(c2nc3c(nnn3Cc3ccccc3)c(=O)[nH]2)CC1` is active: 13%; for `CCS(=O)(=O)c1ccc(C(=O)N2CCN(c3nc4c(OC)ccc(C)c4s3)CC2)cc1` it is inactive: 84%. Under `Cc1ccc(-c2nnc(SC(C)C)n2-c2ccccc2)cc1` stands inactive: 100%; under `O=C(CSc1cn(CCNC(=O)c2ccccc2F)c2ccccc12)Nc1ccc2c(c1)OCCO2`, inactive: 75%; under `COc1cccc(C(C(=O)NCC2CCCO2)N(CC2CCCO2)C(=O)CC2C(=O)c3ccccc3S2(=O)=O)c1` (stereo not drawn), inactive: 90%.
